Test results taken from the RNAGym collection of RNA variant scans (doi:10.1101/gad.245936.114).
This sample is rich in variants without activity.

B1: tRNA (parent)
chain: CUCUCGGUAGCCAAGUUGGUUUAAGGCGCAAGACUUUAAUUUAUCACUACGAAAUCUUGAGAUCGGGCGUUCGACUCGCCCCCGGGAGAUUUUUUCCUCGAGCAA

Variants of: B1
Assay: nonsense suppression (GFP-seq) (ratio to wild type); higher = more function; SUP4oc tRNA, yeast GFP reporter sort-seq
Summary of the method: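 Each variant's nonsense suppression (GFPSEQ) is a cell-share-weighted bin median GFP/RFP relative to the unmutated parent tRNA. Yeast with genome-integrated tRNA variants from a ~3% random-mutation library, a galactose-driven GFP ochre reporter and RFP were grown in raffinose/galactose medium with 80 mg/L adenine, then sorted into GFP/RFP bins for Illumina sequencing. Variants needed ≥100 reads and ≥30 cells.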

| Variant | nonsense suppression |
| --- | --- |
| U20A G88A | ≤ 0.026 |
| U20A G88C | ≤ 0.026 |
| U20A U22A C56G | ≤ 0.026 |
| U20A U22C | 1.11 |
| U20A U22C A33U | ≤ 0.026 |
| U20A U22G G67A U71C | ≤ 0.026 |
| U20A U35G A60C G69A C82A | ≤ 0.026 |
| U20A U35G A62C G67A | ≤ 0.026 |
| U20A U55A G73A C80G | ≤ 0.026 |
| U20A U58A U63A | ≤ 0.026 |
| U20A U58G A87C | ≤ 0.026 |
| U20A U70G G85C | ≤ 0.026 |
| U20A U71A | ≤ 0.026 |
| U20A U76C | 0.719 |
| U20C A23C A54C U58C G69C | ≤ 0.026 |
| U20C A23C G84A | ≤ 0.026 |
| U20C A23C G88A | ≤ 0.026 |
| U20C A23U C34U G61U | ≤ 0.026 |
| U20C A24G | ≤ 0.026 |
| U20C A24G C82A G85A | ≤ 0.026 |
| U20C A24U C27U | ≤ 0.026 |
| U20C A30U | 0.0386 |
| U20C A30U C79G G88A | ≤ 0.026 |
| U20C A31C C79A G85C | ≤ 0.026 |

| Variant | nonsense suppression |
| --- | --- |
| U20C A31G G86C | ≤ 0.026 |
| U20C A33C U76A | ≤ 0.026 |
| U20C A33G C56G | ≤ 0.026 |
| U20C A33G C82G | ≤ 0.026 |
| U20C A87C | ≤ 0.026 |
| U20C A87C G88U | ≤ 0.026 |
| U20C A87U | 0.0273 |
| U20C A89C | ≤ 0.026 |
| U20C A89U | 0.0684 |
| U20C C27U A87G | ≤ 0.026 |
| U20C C29U | 0.0276 |
| U20C C29U A31G | ≤ 0.026 |
| U20C C34G A54G G88C | ≤ 0.026 |
| U20C C34U U35C | ≤ 0.026 |
| U20C C64U | 0.0503 |
| U20C C72U | ≤ 0.026 |
| U20C C75U | 0.843 |
| U20C C80A | ≤ 0.026 |
| U20C C80G | ≤ 0.026 |
| U20C C80G C82U | ≤ 0.026 |
| U20C C82A | ≤ 0.026 |
| U20C C83A | ≤ 0.026 |
| U20C C83G G86A | ≤ 0.026 |
| U20C G25U A89C | ≤ 0.026 |

| Variant | nonsense suppression |
| --- | --- |
| U20C G26C | ≤ 0.026 |
| U20C G32C U55C C83A | ≤ 0.026 |
| U20C G32U U35G | ≤ 0.026 |
| U20C G59C | ≤ 0.026 |
| U20C G65A | ≤ 0.026 |
| U20C G67C G88A | ≤ 0.026 |
| U20C G69C U71C | ≤ 0.026 |
| U20C G73C | ≤ 0.026 |
| U20C G84U | ≤ 0.026 |
| U20C G85A | 0.861 |
| U20C G86A | ≤ 0.026 |
| U20C G86C | ≤ 0.026 |
| U20C U21A | 0.188 |
| U20C U21G C27A U57C G78A | ≤ 0.026 |
| U20C U22A A60C | ≤ 0.026 |
| U20C U22C C56G U70G U71A A74G C80G A89C | ≤ 0.026 |
| U20C U22G U71G | ≤ 0.026 |
| U20C U35G C80A G84C | ≤ 0.026 |
| U20C U35G G73C | ≤ 0.026 |
| U20C U55A | ≤ 0.026 |
| U20C U55A U57C G73A | ≤ 0.026 |
| U20C U55G A87U | ≤ 0.026 |
| U20C U57G C75G | ≤ 0.026 |
| U20C U58G A60U U63G G66A | ≤ 0.026 |

| Variant | nonsense suppression |
| --- | --- |
| U20C U58G C72A G84A | ≤ 0.026 |
| U20C U70G | ≤ 0.026 |
| U20G A23U A31C | ≤ 0.026 |
| U20G A24C G61A A87G | ≤ 0.026 |
| U20G A24G G59C | ≤ 0.026 |
| U20G A24U G67U | ≤ 0.026 |
| U20G A30C | ≤ 0.026 |
| U20G A30G C64A C82G C83U | ≤ 0.026 |
| U20G A31C C72G | ≤ 0.026 |
| U20G A31C G59U A87C | ≤ 0.026 |
| U20G A31G G61C A89U | ≤ 0.026 |
| U20G A33U | 0.0902 |
| U20G A33U U70C | ≤ 0.026 |
| U20G A54G U58A | ≤ 0.026 |
| U20G A60G | 0.477 |
| U20G A60U G86C | ≤ 0.026 |
| U20G A62U A87U | ≤ 0.026 |
| U20G A74U | ≤ 0.026 |
| U20G C27U G61A C83G | ≤ 0.026 |
| U20G C29A G32C A60C G84C | ≤ 0.026 |
| U20G C29A G78A C83G | ≤ 0.026 |
| U20G C56U U57A G61U G78A | ≤ 0.026 |
| U20G C68A | ≤ 0.026 |
| U20G C79A | ≤ 0.026 |

| Variant | nonsense suppression |
| --- | --- |
| U20G C79G A87G | ≤ 0.026 |
| U20G C79G A87U | ≤ 0.026 |
| U20G C79G G84A | ≤ 0.026 |
| U20G C83A | ≤ 0.026 |
| U20G C83A A89C | ≤ 0.026 |
| U20G G25U | ≤ 0.026 |
| U20G G26A G84C | ≤ 0.026 |
| U20G G26U C75U | ≤ 0.026 |
| U20G G26U G84C | ≤ 0.026 |
| U20G G28A C82U | 0.239 |
| U20G G28C U55C A74U | ≤ 0.026 |
| U20G G28U A30U | ≤ 0.026 |
| U20G G32A U35G | ≤ 0.026 |
| U20G G32C A62U | ≤ 0.026 |
| U20G G59C G67C | ≤ 0.026 |
| U20G G61A | 0.635 |
| U20G G61A G67U C68G | ≤ 0.026 |
| U20G G65A G69A | ≤ 0.026 |
| U20G G65C U71C | ≤ 0.026 |
| U20G G66A | ≤ 0.026 |
| U20G G66U | ≤ 0.026 |
| U20G G73C | ≤ 0.026 |
| U20G G78C G85C | ≤ 0.026 |
| U20G G85A A87C | ≤ 0.026 |

| Variant | nonsense suppression |
| --- | --- |
| U20G U21A | 1.18 |
| U20G U21A U71C U76C | ≤ 0.026 |
| U20G U21C G26A | ≤ 0.026 |
| U20G U21G | 0.75 |
| U20G U21G G28U U63C C81G G85U | ≤ 0.026 |
| U20G U35A | ≤ 0.026 |
| U20G U55C | 0.849 |
| U20G U57A G59C G85U | ≤ 0.026 |
| U20G U57G G69U | ≤ 0.026 |
| U20G U70A | ≤ 0.026 |
| U20G U71G | ≤ 0.026 |
| U21A A23C C80A | ≤ 0.026 |
| U21A A23C C80G G84U | ≤ 0.026 |
| U21A A23C U76C C80G | ≤ 0.026 |
| U21A A23C U76C C80G G84U | ≤ 0.026 |
| U21A A23G G61A | ≤ 0.026 |
| U21A A23U U71A A74G C82A | ≤ 0.026 |
| U21A A24C | 0.753 |
| U21A A24G C68U A89U | ≤ 0.026 |
| U21A A24G G65C C80A | ≤ 0.026 |
| U21A A30C C80A | ≤ 0.026 |
| U21A A30G | 0.42 |
| U21A A30G U55G | ≤ 0.026 |
| U21A A31G | 1.16 |

| Variant | nonsense suppression |
| --- | --- |
| U21A A31G G88C | ≤ 0.026 |
| U21A A33C | ≤ 0.026 |
| U21A A33C G69U | ≤ 0.026 |
| U21A A33U | ≤ 0.026 |
| U21A A54C U70G C77U C82U G88C | ≤ 0.026 |
| U21A A54G A60C G66A | ≤ 0.026 |
| U21A A60U C83G | ≤ 0.026 |
| U21A A74C | ≤ 0.026 |
| U21A C27G C34G C68G | ≤ 0.026 |
| U21A C34A | ≤ 0.026 |
| U21A C34A U71G | ≤ 0.026 |
| U21A C34G A54G | ≤ 0.026 |
| U21A C34G C82U A89U | ≤ 0.026 |
| U21A C34G G61A G84U | ≤ 0.026 |
| U21A C34U | ≤ 0.026 |
| U21A C56A | ≤ 0.026 |
| U21A C56G C68U U71G U76C | ≤ 0.026 |
| U21A C72A | ≤ 0.026 |
| U21A C72G | ≤ 0.026 |
| U21A C80A | ≤ 0.026 |
| U21A C83G G84C | ≤ 0.026 |
| U21A G25A | ≤ 0.026 |
| U21A G26U A31C G32U | ≤ 0.026 |
